# Some of the results follow.
# B1: Siglec-9 (Homo sapiens), Q9Y336 (protein)
# chain: MLLLLLPLLWGRERAEGQTSKLLTMQSSVTVQEGLCVHVPCSFSYPSHGWIYPGPVVHGYWFREGANTDQDAPVATNNPARAVWEETRDRFHLLGDPHTKNCTLSIRDARRSDAGRYFFKMEKGSIKWNYKHHRLSVNVTALTHRPNILIPGTLESGCPQNLTCSVPWACEQGTPPMISWIGTSVSPLDPSTTRSSVLTLIPQPQDHGTSLTCQVTFPGASVTTNKTVHLNVSYPPQNLTMTVFQGDGTVSTVLGNGSSLSLPEGQSLRLVCAVDAVDSNPPARLSLSWRGLTLCPSQPSNPGVLELPWVHLRDAAEFTCRAQNPLGSQQVYLNVSLQSKATSGVTQGVVGGAGATALVFLSFCVIFVVVRSCRKKSARPAAGVGDTGIEDANAVRGSASQGPLTEPWAEDSPPDQPPPASARSSVGEGELQYASLSFQMVKPWDSRGQEATDTEYSEIKIHR
# Key:
# Assay in all cases: glycan array binding signal (z-score within array); higher = stronger binding
# Conditions in all cases: glycan notation: IUPAC condensed, linker removed; mutation: R120K
# Neu5Ac(a2-6)Gal = molecular target: Neu5Ac(a2-6)Gal
# Procedure, shortened: (§1)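 Negative Z-scores can be read as non-binding. The Z-score is calculated within each array and then averaged across arrays of one protein sequence at different concentrations or buffers and across linkers. Arrays, 3228 in all, were curated from the Consortium for Functional Glycomics database and kept only where the protein sequence was available.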
# [1] = molecular target: Neu5Ac(a2-6)Gal(b1-3)GlcNAc(b1-3)[Gal(b1-4)GlcNAc(b1-6)]Gal(b1-4)Glc
# Procedure, shortened: as §1
# Neu5Ac(a2-6)Gal(b1-4)Glc = molecular target: Neu5Ac(a2-6)Gal(b1-4)Glc
# Procedure, shortened: as §1
# [2] = molecular target: Neu5Ac(a2-6)Gal(b1-4)GlcNAc
# Procedure, shortened: as §1
# [3] = molecular target: Neu5Ac(a2-6)Gal(b1-4)GlcNAc(b1-2)Man
# Procedure, shortened: as §1
# [4] = molecular target: Neu5Ac(a2-6)Gal(b1-4)GlcNAc(b1-2)Man(a1-3)Man(b1-4)GlcNAc(b1-4)GlcNAc
# Procedure, shortened: as §1
# [5] = molecular target: Neu5Ac(a2-6)Gal(b1-4)GlcNAc(b1-2)Man(a1-3)[Gal(b1-4)GlcNAc(b1-2)Man(a1-6)]Man(b1-4)GlcNAc(b1-4)GlcNAc
# Procedure, shortened: as §1
# [6] = molecular target: Neu5Ac(a2-6)Gal(b1-4)GlcNAc(b1-2)Man(a1-3)[GlcNAc(b1-2)Man(a1-6)]Man(b1-4)GlcNAc(b1-4)GlcNAc
# Procedure, shortened: as §1
# [7] = molecular target: Neu5Ac(a2-6)Gal(b1-4)GlcNAc(b1-2)Man(a1-3)[GlcNAc(b1-4)][Neu5Ac(a2-6)Gal(b1-4)GlcNAc(b1-2)Man(a1-6)]Man(b1-4)GlcNAc(b1-4)GlcNAc
# Procedure, shortened: as §1
# [8] = molecular target: Neu5Ac(a2-6)Gal(b1-4)GlcNAc(b1-2)Man(a1-3)[Man(a1-6)]Man(b1-4)GlcNAc(b1-4)GlcNAc
# Procedure, shortened: as §1
# [9] = molecular target: Neu5Ac(a2-6)Gal(b1-4)GlcNAc(b1-2)Man(a1-3)[Neu5Ac(a2-3)Gal(b1-4)GlcNAc(b1-2)Man(a1-6)]Man(b1-4)GlcNAc(b1-4)GlcNAc
# Procedure, shortened: as §1
# [10] = molecular target: Neu5Ac(a2-6)Gal(b1-4)GlcNAc(b1-2)Man(a1-3)[Neu5Ac(a2-6)Gal(b1-4)GlcNAc(b1-2)Man(a1-6)]Man(b1-4)GlcNAc(b1-4)GlcNAc
# Procedure, shortened: as §1
# [11] = molecular target: Neu5Ac(a2-6)Gal(b1-4)GlcNAc(b1-2)Man(a1-3)[Neu5Ac(a2-6)Gal(b1-4)GlcNAc(b1-2)Man(a1-6)]Man(b1-4)GlcNAc(b1-4)[Fuc(a1-6)]GlcNAc
# Procedure, shortened: as §1
# [12] = molecular target: Neu5Ac(a2-6)Gal(b1-4)GlcNAc(b1-2)Man(a1-6)Man(b1-4)GlcNAc(b1-4)GlcNAc
# Procedure, shortened: as §1
# [13] = molecular target: Neu5Ac(a2-6)Gal(b1-4)GlcNAc(b1-2)Man(a1-6)[Gal(b1-4)GlcNAc(b1-2)Man(a1-3)]Man(b1-4)GlcNAc(b1-4)GlcNAc
# Procedure, shortened: as §1
# [14] = molecular target: Neu5Ac(a2-6)Gal(b1-4)GlcNAc(b1-2)Man(a1-6)[GlcNAc(b1-2)Man(a1-3)]Man(b1-4)GlcNAc(b1-4)GlcNAc
# Procedure, shortened: as §1
# [15] = molecular target: Neu5Ac(a2-6)Gal(b1-4)GlcNAc(b1-2)Man(a1-6)[Man(a1-3)]Man(b1-4)GlcNAc(b1-4)GlcNAc
# Procedure, shortened: as §1
# [16] = molecular target: Neu5Ac(a2-6)Gal(b1-4)GlcNAc(b1-2)[Neu5Ac(a2-6)Gal(b1-4)GlcNAc(b1-4)]Man(a1-3)[GlcNAc(b1-4)][Neu5Ac(a2-6)Gal(b1-4)GlcNAc(b1-2)[Neu5Ac(a2-6)Gal(b1-4)GlcNAc(b1-6)]Man(a1-6)]Man(b1-4)GlcNAc(b1-4)GlcNAc
# Procedure, shortened: as §1
# [17] = molecular target: Neu5Ac(a2-6)Gal(b1-4)GlcNAc(b1-2)[Neu5Ac(a2-6)Gal(b1-4)GlcNAc(b1-4)]Man(a1-3)[GlcNAc(b1-4)][Neu5Ac(a2-6)Gal(b1-4)GlcNAc(b1-4)Man(a1-6)]Man(b1-4)GlcNAc(b1-4)GlcNAc
# Procedure, shortened: as §1
# [18] = molecular target: Neu5Ac(a2-6)Gal(b1-4)GlcNAc(b1-2)[Neu5Ac(a2-6)Gal(b1-4)GlcNAc(b1-6)]Man(a1-6)[Neu5Ac(a2-6)Gal(b1-4)GlcNAc(b1-2)Man(a1-3)][GlcNAc(b1-4)]Man(b1-4)GlcNAc(b1-4)GlcNAc
# Procedure, shortened: as §1
# [19] = molecular target: Neu5Ac(a2-6)Gal(b1-4)GlcNAc(b1-3)Gal(b1-3)GlcNAc
# Procedure, shortened: as §1
# [20] = molecular target: Neu5Ac(a2-6)Gal(b1-4)GlcNAc(b1-3)Gal(b1-4)GlcNAc
# Procedure, shortened: as §1
# [21] = molecular target: Neu5Ac(a2-6)Gal(b1-4)GlcNAc(b1-3)Gal(b1-4)GlcNAc(b1-2)Man(a1-3)[Neu5Ac(a2-6)Gal(b1-4)GlcNAc(b1-3)Gal(b1-4)GlcNAc(b1-2)Man(a1-6)]GalNAc
# Procedure, shortened: as §1
# [22] = molecular target: Neu5Ac(a2-6)Gal(b1-4)GlcNAc(b1-3)Gal(b1-4)GlcNAc(b1-3)Gal(b1-4)GlcNAc
# Procedure, shortened: as §1
# [23] = molecular target: Neu5Ac(a2-6)Gal(b1-4)GlcNAc(b1-3)Gal(b1-4)GlcNAc(b1-3)Gal(b1-4)GlcNAc(b1-2)Man(a1-3)[Neu5Ac(a2-6)Gal(b1-4)GlcNAc(b1-3)Gal(b1-4)GlcNAc(b1-3)Gal(b1-4)GlcNAc(b1-2)Man(a1-6)]GalNAc
# Procedure, shortened: as §1
# [24] = molecular target: Neu5Ac(a2-6)Gal(b1-4)GlcNAc(b1-3)Gal(b1-4)GlcNAc(b1-3)GalNAc
# Procedure, shortened: as §1
# [25] = molecular target: Neu5Ac(a2-6)Gal(b1-4)GlcNAc(b1-3)Gal(b1-4)GlcNAc(b1-3)[Neu5Ac(a2-6)Gal(b1-4)GlcNAc(b1-3)Gal(b1-4)GlcNAc(b1-6)]GalNAc
# Procedure, shortened: as §1
# [26] = molecular target: Neu5Ac(a2-6)Gal(b1-4)GlcNAc(b1-3)Gal(b1-4)GlcNAc(b1-6)[Gal(b1-3)]GalNAc
# Procedure, shortened: as §1
# [27] = molecular target: Neu5Ac(a2-6)Gal(b1-4)GlcNAc(b1-3)Gal(b1-4)[Fuc(a1-3)]GlcNAc(b1-3)Gal(b1-4)[Fuc(a1-3)]GlcNAc
# Procedure, shortened: as §1
# [28] = molecular target: Neu5Ac(a2-6)Gal(b1-4)GlcNAc(b1-3)GalNAc
# Procedure, shortened: as §1
# [29] = molecular target: Neu5Ac(a2-6)Gal(b1-4)GlcNAc(b1-3)[Neu5Ac(a2-6)Gal(b1-4)GlcNAc(b1-6)]GalNAc
# Procedure, shortened: as §1
# [30] = molecular target: Neu5Ac(a2-6)Gal(b1-4)GlcNAc(b1-6)GalNAc
# Procedure, shortened: as §1
# [31] = molecular target: Neu5Ac(a2-6)Gal(b1-4)GlcNAc(b1-6)[Gal(b1-3)GlcNAc(b1-3)]Gal(b1-4)Glc
# Procedure, shortened: as §1
# [32] = molecular target: Neu5Ac(a2-6)Gal(b1-4)GlcNAc(b1-6)[Gal(b1-3)]GalNAc
# Procedure, shortened: as §1
# [33] = molecular target: Neu5Ac(a2-6)Gal(b1-4)GlcNAc6S
# Procedure, shortened: as §1
# Neu5Ac(a2-6)GalNAc = molecular target: Neu5Ac(a2-6)GalNAc
# Procedure, shortened: as §1
# [34] = molecular target: Neu5Ac(a2-6)GalNAc(b1-4)GlcNAc
# Procedure, shortened: as §1
# [35] = molecular target: Neu5Ac(a2-6)GalNAc(b1-4)GlcNAc6S
# Procedure, shortened: as §1
binder,measurement,setting,value
B1,glycan array binding signal (z-score),Neu5Ac(a2-6)Gal,-0.301
same,glycan array binding signal (z-score),[1],-0.34
same,glycan array binding signal (z-score),Neu5Ac(a2-6)Gal(b1-4)Glc,-0.149
same,glycan array binding signal (z-score),[2],-0.396
same,glycan array binding signal (z-score),[3],-0.208
same,glycan array binding signal (z-score),[4],-0.286
same,glycan array binding signal (z-score),[5],-0.219
same,glycan array binding signal (z-score),[6],-0.503
same,glycan array binding signal (z-score),[7],-0.235
same,glycan array binding signal (z-score),[8],-0.306
same,glycan array binding signal (z-score),[9],-0.309
same,glycan array binding signal (z-score),[10],-0.367
same,glycan array binding signal (z-score),[11],-0.252
same,glycan array binding signal (z-score),[12],-0.124
same,glycan array binding signal (z-score),[13],-0.298
same,glycan array binding signal (z-score),[14],-0.223
same,glycan array binding signal (z-score),[15],-0.265
same,glycan array binding signal (z-score),[16],-0.023
same,glycan array binding signal (z-score),[17],0.085
same,glycan array binding signal (z-score),[18],0.22
same,glycan array binding signal (z-score),[19],-0.551
same,glycan array binding signal (z-score),[20],-0.523
same,glycan array binding signal (z-score),[21],-0.374
same,glycan array binding signal (z-score),[22],-0.188
same,glycan array binding signal (z-score),[23],-0.211
same,glycan array binding signal (z-score),[24],-0.327
same,glycan array binding signal (z-score),[25],-0.11
same,glycan array binding signal (z-score),[26],0.175
same,glycan array binding signal (z-score),[27],-0.179
same,glycan array binding signal (z-score),[28],0.16
same,glycan array binding signal (z-score),[29],0.46
same,glycan array binding signal (z-score),[30],0.131
same,glycan array binding signal (z-score),[31],0.104
same,glycan array binding signal (z-score),[32],-0.158
same,glycan array binding signal (z-score),[33],0.697
same,glycan array binding signal (z-score),Neu5Ac(a2-6)GalNAc,-0.373
same,glycan array binding signal (z-score),[34],-0.596
same,glycan array binding signal (z-score),[35],-0.062
